The values that follow come from article PMC5892938.

Some of the results follow. At the low end of the ranking, values are background and their order means little.

This assay deals with GST-SBP-SLBP (stem-loop binding protein) (UniProt Q14493). Put plainly: targeted RNA Bind-n-Seq.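 Note: DESeq read counts versus GST-SBP nonspecific binding control pulldown.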 To be noted: RBNS binding buffer: 25 mM Tris pH 7.5, 150 mM KCl, 3 mM MgCl2, 0.1% Tween, 0.5 mg/mL BSA, 1 mM DTT; 27 nM protein, 750 pM RNA pool; temperature not stated; high values mean tight binding.
On to “GGUCACGUCUCAAUCAACUCCUUAGAGGGGGGGAAAACCCCUUUACCCUCAUUUUCAACAGCUCGCAGUCAAG”, for which the binding signal (log2 fold change) is -0.386.

With “GGUCACGUCUCAAUCAACUCAUUUUCCAGGGAAAGCCCUGGUUUAUUCAACAGCUCGCAGUCAAG”, the binding signal (log2 fold change) was -0.15.

For the sequence “GGUCACGUCUCAAUCAACUCAAUUCCCAGGGAAACCCCUGGUAUACUCAACAGCUCGCAGUCAAG”, the binding signal (log2 fold change) turned out to be 0.105. “GGUCACGUCUCAAUCAACUCAUCGUCAGGAGUUUGCUCCUGCAAUUUCAACAGCUCGCAGUCAAG”: the binding signal (log2 fold change) is 0.0216. As to “GGUCACGUCUCAAUCAACUCAAGUCCAGGAGUUUCCUCCUGCAAAUUCAACAGCUCGCAGUCAAG”, the binding signal (log2 fold change) is -0.11. Under “GGUCACGUCUCAAUCAACUCUUCCCCAGGAGUUUACUCCUGUUAAUUCAACAGCUCGCAGUCAAG” stands -0.0229. Under “GGUCACGUCUCAAUCAACUCUAUUCCCAGGGAAACCCCUGGCUUUCUCAACAGCUCGCAGUCAAG” stands 0.0254; under “GGUCACGUCUCAAUCAACUCAUUCUCAGGAGUUUACUCCUGCAAAUUCAACAGCUCGCAGUCAAG”, -0.201. For “GGUCACGUCUCAAUCAACUCAUUUUCAGGAGUUUACUCCUGCAUUCUCAACAGCUCGCAGUCAAG”, the binding signal (log2 fold change) was -0.0386. “GGUCACGUCUCAAUCAACUCAAUCGCAGGAGUUUACUCCUGGUAAUUCAACAGCUCGCAGUCAAG”: the binding signal (log2 fold change) amounted to 0.107.

“GGUCACGUCUCAAUCAACUCAGUCCCAGGAGUUUCCUCCUGUAUUUUCAACAGCUCGCAGUCAAG”: the binding signal (log2 fold change) was -0.198.

For the sequence “GGUCACGUCUCAAUCAACUCUUCUCCCAGGGAAAGCCCUGGUAAACUCAACAGCUCGCAGUCAAG”, the binding signal (log2 fold change) is 0.33. The result for “GGUCACGUCUCAAUCAACUCUAGUCCAGGAGUUUACUCCUGUAAUUUCAACAGCUCGCAGUCAAG” reads -0.0626; that for “GGUCACGUCUCAAUCAACUCUUAUGAGGGGGGGAAAACCCCUUUACCCUCUACAUCAACAGCUCGCAGUCAAG”, 0.045.

For the sequence “GGUCACGUCUCAAUCAACUCUUACGAGGGGGGGAAAACCCCUUUGCCCUCAUCAUCAACAGCUCGCAGUCAAG”, the binding signal (log2 fold change) is -0.148. The result for “GGUCACGUCUCAAUCAACUCCAAGGAGGGGGGGAAAACCCCUUUACCCUCAAUCUCAACAGCUCGCAGUCAAG” reads 0.482; that for “GGUCACGUCUCAAUCAACUCACAAGAGGGGGGGAAAACCCCUUUGCCCUCAAUUUCAACAGCUCGCAGUCAAG”, -0.328. Under “GGUCACGUCUCAAUCAACUCUAUCCCCAGGGAAACCCCUGGCAUACUCAACAGCUCGCAGUCAAG” stands -0.0221; under “GGUCACGUCUCAAUCAACUCACAAGAGGGGGGGAAAACCCCUUUGCCCUCAAAUUCAACAGCUCGCAGUCAAG”, 0.121; under “GGUCACGUCUCAAUCAACUCAAUCUCCAGGGAAAACCCUGGCAAUCUCAACAGCUCGCAGUCAAG”, -0.00152. Take “GGUCACGUCUCAAUCAACUCUUCCCCAGGAGUUUACUCCUGUAAAUUCAACAGCUCGCAGUCAAG”: the binding signal (log2 fold change) was -0.0207.

“GGUCACGUCUCAAUCAACUCCUCAGAGGGGGGGAAAACCCCUUUACCCUCCGUUUCAACAGCUCGCAGUCAAG”: the binding signal (log2 fold change) was -0.466.

“GGUCACGUCUCAAUCAACUCAUCCCCAGGAGUUUACUCCUGUAAUCUCAACAGCUCGCAGUCAAG”: the binding signal (log2 fold change) is 0.0671. Under “GGUCACGUCUCAAUCAACUCAUCGUCAGGAGUUUUCUCCUGCAAUCUCAACAGCUCGCAGUCAAG” stands 0.0443; under “GGUCACGUCUCAAUCAACUCAUCCUCAGGAGUUUCCUCCUGUAUUUUCAACAGCUCGCAGUCAAG”, 0.141. For the sequence “GGUCACGUCUCAAUCAACUCCCACGAGGGGGGGAAAACCCCUUUACCCUCAAUAUCAACAGCUCGCAGUCAAG”, the binding signal (log2 fold change) was -0.374. The result for “GGUCACGUCUCAAUCAACUCUAUCUCAGGAGUUUUCUCCUGUAUACUCAACAGCUCGCAGUCAAG” reads 0.0393; that for “GGUCACGUCUCAAUCAACUCAUCCUCAGGAGUUUACUCCUGUUAAGUCAACAGCUCGCAGUCAAG”, 0.23; that for “GGUCACGUCUCAAUCAACUCUUCGUCCAGGGAAAUCCCUGGCAAUUUCAACAGCUCGCAGUCAAG”, -0.0382. For “GGUCACGUCUCAAUCAACUCAUCCGAGGGGGGGAAAACCCCUUUACCCUCAAUUUCAACAGCUCGCAGUCAAG”, the binding signal (log2 fold change) came out at 0.0859. Turning to “GGUCACGUCUCAAUCAACUCAGUCCCCAGGGAAAACCCUGGUUAAUUCAACAGCUCGCAGUCAAG”, the binding signal (log2 fold change) was -0.295.

Turning to “GGUCACGUCUCAAUCAACUCUUUCCCCAGGGAAACCCCUGGCUUUUUCAACAGCUCGCAGUCAAG”, the binding signal (log2 fold change) stood at 0.0218. The result for “GGUCACGUCUCAAUCAACUCUACUUCAGGAGUUUUCUCCUGCUAACUCAACAGCUCGCAGUCAAG” reads 0.214; that for “GGUCACGUCUCAAUCAACUCUUUCGCAGGAGUUUUCUCCUGGUAAUUCAACAGCUCGCAGUCAAG”, -0.0421; that for “GGUCACGUCUCAAUCAACUCUUUUCCCAGGGAAAGCCCUGGUAAUCUCAACAGCUCGCAGUCAAG”, 0.077. The result for “GGUCACGUCUCAAUCAACUCAUCGUCAGGAGUUUACUCCUGUAAAUUCAACAGCUCGCAGUCAAG” reads 0.0178; that for “GGUCACGUCUCAAUCAACUCAGUCUCCAGGGAAAACCCUGGUUUUUUCAACAGCUCGCAGUCAAG”, -0.208.

As for “GGUCACGUCUCAAUCAACUCUUCCCCCAGGGAAACCCCUGGUUAAUUCAACAGCUCGCAGUCAAG”, the binding signal (log2 fold change) is 0.102.

As to “GGUCACGUCUCAAUCAACUCAUAAGAGGGGGGGAAAACCCCUUUACCCUCAAUCUCAACAGCUCGCAGUCAAG”, the binding signal (log2 fold change) is -0.0836. The result for “GGUCACGUCUCAAUCAACUCAUUUUCAGGAGUUUGCUCCUGCAUUUUCAACAGCUCGCAGUCAAG” reads 0.0474. On to “GGUCACGUCUCAAUCAACUCUUCUUCAGGAGUUUCCUCCUGUUUACUCAACAGCUCGCAGUCAAG”, for which the binding signal (log2 fold change) came to 0.0029. For “GGUCACGUCUCAAUCAACUCUAUUUCAGGAGUUUCCUCCUGCAUUUUCAACAGCUCGCAGUCAAG”, the binding signal (log2 fold change) came to 0.0837. The result for “GGUCACGUCUCAAUCAACUCCUUAGAGGGGGGGAAAACCCCUUUGCCCUCAAUCUCAACAGCUCGCAGUCAAG” reads 0.0801. Regarding “GGUCACGUCUCAAUCAACUCUAUCUCAGGAGUUUACUCCUGCAAAUUCAACAGCUCGCAGUCAAG”, the binding signal (log2 fold change) was found to be 0.00804. Consider “GGUCACGUCUCAAUCAACUCUACUCCCAGGGAAAUCCCUGGUAUACUCAACAGCUCGCAGUCAAG”, for which the binding signal (log2 fold change) was -0.0809. Under “GGUCACGUCUCAAUCAACUCAACUCCCAGGGAAAACCCUGGUAAUCUCAACAGCUCGCAGUCAAG” stands -0.0244; under “GGUCACGUCUCAAUCAACUCUUCUGAGGGGGGGAAAACCCCUUUACCCUCUACAUCAACAGCUCGCAGUCAAG”, -0.000555. The result for “GGUCACGUCUCAAUCAACUCGUUUUCAGGAGUUUUCUCCUGCUAUCUCAACAGCUCGCAGUCAAG” reads 0.0977; that for “GGUCACGUCUCAAUCAACUCAAAAGAGGGGGGGAAAACCCCUUUACCCUCAUUCUCAACAGCUCGCAGUCAAG”, -0.145; that for “GGUCACGUCUCAAUCAACUCAGUUUCAGGAGUUUACUCCUGCUAAUUCAACAGCUCGCAGUCAAG”, 0.253. Regarding “GGUCACGUCUCAAUCAACUCUUUCCCCAGGGAAAUCCCUGGCAUUCUCAACAGCUCGCAGUCAAG”, the binding signal (log2 fold change) came to 0.145. The result for “GGUCACGUCUCAAUCAACUCUUCCUCAGGAGUUUGCUCCUGCAUAUUCAACAGCUCGCAGUCAAG” reads -0.00415; that for “GGUCACGUCUCAAUCAACUCCCACGAGGGGGGGAAAACCCCUUUACCCUCAAAUUCAACAGCUCGCAGUCAAG”, 0.135; that for “GGUCACGUCUCAAUCAACUCAAUGGAGGGGGGGAAAACCCCUUUACCCUCAUCAUCAACAGCUCGCAGUCAAG”, -0.435. Take “GGUCACGUCUCAAUCAACUCAUUUCCAGGAGUUUGCUCCUGUAAUCUCAACAGCUCGCAGUCAAG”: the binding signal (log2 fold change) was 0.135. Under “GGUCACGUCUCAAUCAACUCAUCCUCAGGAGUUUGCUCCUGUAAUCUCAACAGCUCGCAGUCAAG” stands 0.122; under “GGUCACGUCUCAAUCAACUCUUUAGAGGGGGGGAAAACCCCUUUGCCCUCACCAUCAACAGCUCGCAGUCAAG”, 0.263. Under “GGUCACGUCUCAAUCAACUCUUUCGAGGGGGGGAAAACCCCUUUACCCUCAACAUCAACAGCUCGCAGUCAAG” stands 0.235. In the case of “GGUCACGUCUCAAUCAACUCAAGUCCCAGGGAAAGCCCUGGCUAAUUCAACAGCUCGCAGUCAAG”, the binding signal (log2 fold change) was -0.111. The result for “GGUCACGUCUCAAUCAACUCUUCGCCCAGGGAAAUCCCUGGUUAUUUCAACAGCUCGCAGUCAAG” reads 0.237; that for “GGUCACGUCUCAAUCAACUCUACUUCCAGGGAAAGCCCUGGUAAACUCAACAGCUCGCAGUCAAG”, -0.202. The result for “GGUCACGUCUCAAUCAACUCACACGAGGGGGGGAAAACCCCUUUACCCUCUAAAUCAACAGCUCGCAGUCAAG” reads -0.0824; that for “GGUCACGUCUCAAUCAACUCUAAAGAGGGGGGGAAAACCCCUUUACCCUCCAAAUCAACAGCUCGCAGUCAAG”, -0.897; that for “GGUCACGUCUCAAUCAACUCAUGUCCAGGAGUUUACUCCUGUAAUUUCAACAGCUCGCAGUCAAG”, 0.103. The result for “GGUCACGUCUCAAUCAACUCUACUUCCAGGGAAACCCCUGGCAAAUUCAACAGCUCGCAGUCAAG” reads 0.0813; that for “GGUCACGUCUCAAUCAACUCAGUCUCCAGGGAAACCCCUGGCAUAUUCAACAGCUCGCAGUCAAG”, 0.15. Turning to “GGUCACGUCUCAAUCAACUCAACUUCCAGGGAAAGCCCUGGCAUUUUCAACAGCUCGCAGUCAAG”, the binding signal (log2 fold change) is -0.199. Under “GGUCACGUCUCAAUCAACUCUACUUCAGGAGUUUUCUCCUGCAUACUCAACAGCUCGCAGUCAAG” stands 0.131.

“GGUCACGUCUCAAUCAACUCAUCCUCAGGAGUUUACUCCUGCUUUCUCAACAGCUCGCAGUCAAG”: the binding signal (log2 fold change) stood at 0.105. Turning to “GGUCACGUCUCAAUCAACUCUUCUUCCAGGGAAAUCCCUGGCGUAUUCAACAGCUCGCAGUCAAG”, the binding signal (log2 fold change) was -0.231. Under “GGUCACGUCUCAAUCAACUCAAUUUCCAGGGAAAUCCCUGGUUUACUCAACAGCUCGCAGUCAAG” stands 0.112; under “GGUCACGUCUCAAUCAACUCAGUCUCCAGGGAAACCCCUGGCAUUCUCAACAGCUCGCAGUCAAG”, -0.0883. In the case of “GGUCACGUCUCAAUCAACUCAUCGUCAGGAGUUUCCUCCUGCUUUUUCAACAGCUCGCAGUCAAG”, the binding signal (log2 fold change) was 0.141.

Turning to “GGUCACGUCUCAAUCAACUCCCUAGAGGGGGGGAAAACCCCUUUGCCCUCCAUGUCAACAGCUCGCAGUCAAG”, the binding signal (log2 fold change) was -0.233.
